According to paper PMC5156837:
These are yes or no findings as the source states them, for the method shown. Some binding calls cover weakened binding; strength is not graded here. For some of these results: Tags and fused reporters may be left off the sequences shown. Each block holds one binder with its values, some of them ahead of it.

Chains of the proteins cited; added tags and fusions are not shown.
UniProt Q7FRS8: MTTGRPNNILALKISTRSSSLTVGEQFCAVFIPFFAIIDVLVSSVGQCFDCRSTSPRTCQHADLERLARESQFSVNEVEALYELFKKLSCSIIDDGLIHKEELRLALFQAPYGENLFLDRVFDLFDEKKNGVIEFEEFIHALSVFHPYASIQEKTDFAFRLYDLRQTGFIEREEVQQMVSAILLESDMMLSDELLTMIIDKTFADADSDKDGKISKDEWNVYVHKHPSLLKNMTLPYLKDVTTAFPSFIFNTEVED
UniProt O81445: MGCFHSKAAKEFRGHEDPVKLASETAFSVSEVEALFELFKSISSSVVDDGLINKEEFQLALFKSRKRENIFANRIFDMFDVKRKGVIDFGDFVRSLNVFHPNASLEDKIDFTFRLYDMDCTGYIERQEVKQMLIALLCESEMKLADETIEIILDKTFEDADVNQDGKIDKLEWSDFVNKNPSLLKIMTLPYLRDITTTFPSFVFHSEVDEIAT
UniProt O81223: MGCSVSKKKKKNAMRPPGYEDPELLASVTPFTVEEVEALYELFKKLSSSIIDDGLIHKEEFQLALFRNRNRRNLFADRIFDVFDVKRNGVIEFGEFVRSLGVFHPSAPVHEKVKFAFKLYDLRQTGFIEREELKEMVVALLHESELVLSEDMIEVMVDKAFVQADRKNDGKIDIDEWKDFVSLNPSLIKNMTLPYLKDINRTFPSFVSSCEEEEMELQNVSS
UniProt Q9C5P6: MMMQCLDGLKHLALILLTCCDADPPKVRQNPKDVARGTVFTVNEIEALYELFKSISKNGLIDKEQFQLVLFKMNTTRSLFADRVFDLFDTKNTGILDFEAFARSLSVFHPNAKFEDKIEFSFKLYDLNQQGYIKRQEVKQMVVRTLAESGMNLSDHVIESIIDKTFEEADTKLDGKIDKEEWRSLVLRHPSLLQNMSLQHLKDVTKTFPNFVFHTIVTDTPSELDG
UniProt Q9SUA6: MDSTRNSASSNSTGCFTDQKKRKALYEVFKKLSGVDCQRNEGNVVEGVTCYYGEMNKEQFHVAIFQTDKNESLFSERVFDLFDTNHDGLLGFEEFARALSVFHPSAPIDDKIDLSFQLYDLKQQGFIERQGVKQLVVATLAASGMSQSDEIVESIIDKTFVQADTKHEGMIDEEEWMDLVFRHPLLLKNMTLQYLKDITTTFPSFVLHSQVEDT
UniProt Q9LTB8: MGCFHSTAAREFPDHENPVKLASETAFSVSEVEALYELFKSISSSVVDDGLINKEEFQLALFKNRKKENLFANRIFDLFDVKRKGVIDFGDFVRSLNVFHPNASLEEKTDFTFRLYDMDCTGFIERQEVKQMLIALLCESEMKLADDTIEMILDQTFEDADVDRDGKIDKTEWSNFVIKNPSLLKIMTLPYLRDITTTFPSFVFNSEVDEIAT

Experiments:
[1] = biological target: BD·CBL10 (calcineurin B-like protein 10 fused to the GAL4 DNA-binding domain) (Arabidopsis thaliana) (UniProt Q7FRS8); test: two-hybrid; yeast two-hybrid system; data not shown
[2] = biological target: BD·CBL10 (calcineurin B-like protein 10 fused to the GAL4 DNA-binding domain) (Arabidopsis thaliana) (UniProt Q7FRS8); test: two-hybrid; yeast strain Y190; BD (pGBT9.BS) and AD (pGAD.GH) fusions; growth on SC-HLW (HIS3 reporter), LacZ filter-lift assay; 30°C
[3] = biological target: BD·CBL1 (calcineurin B-like protein 1 fused to the GAL4 DNA-binding domain) (Arabidopsis thaliana) (UniProt O81445); test: as above
[4] = biological target: BD·CBL2 (calcineurin B-like protein 2 fused to the GAL4 DNA-binding domain) (Arabidopsis thaliana) (UniProt Q8LAS7); test: as above
[5] = biological target: BD·CBL3 (calcineurin B-like protein 3 fused to the GAL4 DNA-binding domain) (Arabidopsis thaliana) (UniProt Q8LEM7); test: as above
[6] = biological target: BD·CBL4 (calcineurin B-like protein 4 fused to the GAL4 DNA-binding domain) (Arabidopsis thaliana) (UniProt O81223); test: as above
[7] = biological target: T1, BD·CBL5 (calcineurin B-like protein 5 fused to the GAL4 DNA-binding domain) (Arabidopsis thaliana) (UniProt Q7FZF1); test: as above
T1 sequence: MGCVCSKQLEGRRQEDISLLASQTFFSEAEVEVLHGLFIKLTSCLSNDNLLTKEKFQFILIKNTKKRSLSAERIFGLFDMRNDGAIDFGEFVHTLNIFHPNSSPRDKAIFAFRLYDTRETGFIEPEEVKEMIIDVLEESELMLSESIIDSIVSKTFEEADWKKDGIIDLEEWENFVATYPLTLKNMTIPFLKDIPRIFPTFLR

[8] = biological target: BD·CBL6 (calcineurin B-like protein 6 fused to the GAL4 DNA-binding domain) (Arabidopsis thaliana) (UniProt Q9C5P6); test: as above
[9] = biological target: BD·CBL7 (calcineurin B-like protein 7 fused to the GAL4 DNA-binding domain) (Arabidopsis thaliana) (UniProt Q9SUA6); test: as above
[10] = biological target: T2, BD·CBL8 (calcineurin B-like protein 8 fused to the GAL4 DNA-binding domain) (Arabidopsis thaliana) (UniProt Q9FUQ7); test: as above
T2 sequence: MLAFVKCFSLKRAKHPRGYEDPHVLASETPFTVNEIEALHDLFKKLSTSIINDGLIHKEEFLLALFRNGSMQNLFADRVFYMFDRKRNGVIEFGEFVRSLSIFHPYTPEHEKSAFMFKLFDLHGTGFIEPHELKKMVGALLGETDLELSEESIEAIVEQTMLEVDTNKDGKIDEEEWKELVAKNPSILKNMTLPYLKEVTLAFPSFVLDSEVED

[11] = biological target: BD·CBL9 (calcineurin B-like protein 9 fused to the GAL4 DNA-binding domain) (Arabidopsis thaliana) (UniProt Q9LTB8); test: as above

B1: TOC33 (TOC34-like protein, At1g02280) (protein, UniProt O23680 1-297)
chain: MGSLVREWVGFQQFPAATQEKLIEFFGKLKQKDMNSMTVLVLGKGGVGKSSTVNSLIGEQVVRVSPFQAEGLRPVMVSRTMGGFTINIIDTPGLVEAGYVNHQALELIKGFLVNRTIDVLLYVDRLDVYRVDELDKQVVIAITQTFGKEIWCKTLLVLTHAQFSPPDELSYETFSSKRSDSLLKTIRAGSKMRKQEFEDSAIAVVYAENSGRCSKNDKDEKALPNGEAWIPNLVKAITDVATNQRKAIHVDKKMVDGSYSDDKGKKLIPLIIGAQYLIVKMIQGAIRNDIKTSGKPL
binding [1]: binds

B3: AD·TOC34-N (TOC34 lacking the last 54 amino acids, fused to the GAL4 activation domain) (domain or fragment, UniProt Q38906 1-259)
chain: MAALQTLREWIGIQQFPPATQSKLLEILGKYKEEDVSSLTVLVMGKGGVGKSSTVNSVIGEKAAAVSTFQSEGLRPTLVSRTRSGFTLNIIDTPGLIEGGYVNDQAINIIKRFLLNMTIDVLLYVDRLDVYRVDDLDRQVVGAITDAFGKEIWKKSALVLTHAQFSPPDGLNYNHFVSKRSNALLKVIQTGAQLKKQDLQGFSIPVILVENSGRCHKNESDEKILPCGTSWIPNLFNKITEISFNGNKAIHVDKKLVEG
binding [2]: no binding

B4: AD·TOC34 (full-length Translocon of the Outer membrane of the Chloroplasts 34 fused to the GAL4 activation domain) (protein, UniProt Q38906 1-313)
chain: MAALQTLREWIGIQQFPPATQSKLLEILGKYKEEDVSSLTVLVMGKGGVGKSSTVNSVIGEKAAAVSTFQSEGLRPTLVSRTRSGFTLNIIDTPGLIEGGYVNDQAINIIKRFLLNMTIDVLLYVDRLDVYRVDDLDRQVVGAITDAFGKEIWKKSALVLTHAQFSPPDGLNYNHFVSKRSNALLKVIQTGAQLKKQDLQGFSIPVILVENSGRCHKNESDEKILPCGTSWIPNLFNKITEISFNGNKAIHVDKKLVEGPNPNERGKKLIPLMFAFQYLLVMKPLVRAIKSDVSRESKPAWELRDSGLASRRS
binding [3]: no binding | binding [4]: no binding | binding [5]: no binding | binding [6]: no binding | binding [7]: no binding | binding [8]: no binding | binding [9]: binds weakly | binding [10]: no binding | binding [11]: no binding

The remaining lines, values ahead:

binding [2]: no binding
Binder: PLVRAIKSDVSRESKPAWELRDSGLASRRS (domain or fragment, UniProt Q38906 284-313)

binding [2]: binds
B2: AD·TOC34-C1 (TOC34 with N-terminal deletion down to the 260th residue, fused to the GAL4 activation domain) (domain or fragment, UniProt Q38906 261-313)
chain: NPNERGKKLIPLMFAFQYLLVMKPLVRAIKSDVSRESKPAWELRDSGLASRRS
